# Results: publication PMC9911399, “Two distinct binding modes provide the RNA-binding protein RbFox with extraordinary sequence specificity”
# Changes are numbered by the printed parent chain; changes in the protein carry UniProt numbers. This is one part of the list.
# T1: RBFOX1 RRM RbFoxmut (Fox-RRM*) (Homo sapiens, UniProt Q9NWB1 109-208, R118D;E147R;N151S;E152T)
# T1 sequence: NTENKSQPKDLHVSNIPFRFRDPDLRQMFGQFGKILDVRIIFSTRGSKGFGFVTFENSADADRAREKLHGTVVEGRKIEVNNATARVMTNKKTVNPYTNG
# B1: ACGUGGC (DNA:RNA)
# RNA: GGGAGACCGGAAUUCAGAUUGUCCACGUGGCUUAAAUCCCGUCGUAGCCACCA
# DNA 1: CAATCTGAATTCCGGTCTCCC
# DNA 2: TGGTGGCTACGACGGGATT
# B2: GGACAGA (DNA:RNA)
# RNA: B1 RNA with A25G, C26G, G27A, U28C, G29A, C31A
# DNA 1: CAATCTGAATTCCGGTCTCCC
# DNA 2: TGGTGGCTACGACGGGATT
# B3: UUGCCGG (DNA:RNA)
# RNA: B1 RNA with A25U, C26U, U28C, G29C, C31G
# DNA 1: CAATCTGAATTCCGGTCTCCC
# DNA 2: TGGTGGCTACGACGGGATT
# B4: GUUGUUU (DNA:RNA)
# RNA: GGGAGACCGGAAUUCAGAUUGUCCGUUGUUUUUAAAUCCCGUCGUAGCCACCA
# DNA 1: CAATCTGAATTCCGGTCTCCC
# DNA 2: TGGTGGCTACGACGGGATT
# B5: GUUGAGA (DNA:RNA)
# RNA: B4 RNA with U29A, U30G, U31A
# DNA 1: CAATCTGAATTCCGGTCTCCC
# DNA 2: TGGTGGCTACGACGGGATT
# B6: ACUUGAU (DNA:RNA)
# RNA: B1 RNA with G27U, G30A, C31U
# DNA 1: CAATCTGAATTCCGGTCTCCC
# DNA 2: TGGTGGCTACGACGGGATT
# B7: UUGAAUG (DNA:RNA)
# RNA: B4 RNA with G25U, U27G, G28A, U29A, U31G
# DNA 1: CAATCTGAATTCCGGTCTCCC
# DNA 2: TGGTGGCTACGACGGGATT
# B8: CACACAA (DNA:RNA)
# RNA: GGGAGACCGGAAUUCAGAUUGUCCCACACAAUUAAAUCCCGUCGUAGCCACCA
# DNA 1: CAATCTGAATTCCGGTCTCCC
# DNA 2: TGGTGGCTACGACGGGATT
# B9: GGGGGCU (DNA:RNA)
# RNA: B4 RNA with U26G, U27G, U29G, U30C
# DNA 1: CAATCTGAATTCCGGTCTCCC
# DNA 2: TGGTGGCTACGACGGGATT
# Target: T1, RBFOX1 RRM RbFoxmut (Fox-RRM*)
# Experiment: EMSA; HiTS-Eq, 1 nM pool, 10 min; buffer printed only for the single-RNA assays: 10 mM Tris pH 7.5, 150 mM NaCl, 3.4 mM EDTA, 0.001% NP-40, 30 C
# Conditions: tags: His6 N-terminal (pET28a); label: 5' 32P
# In short: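 A pool of RNA with 7 randomized nucleotides, 5′-radiolabelled and with DNA-annealed flanks, was equilibrated at 1 nM for 10 min in 50 µL with purified RbFox RRM, wild type or mutant, across increasing protein concentrations. Free RNA was separated by 8% native PAGE, excised, reverse-transcribed, barcoded by PCR and sequenced. Relative association constants were obtained from read-count changes of each RNA species versus the control reaction and normalised to the cognate motif.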
row,Binder,binding signal
1,B1,0.119 KA relative to UGCAUGU
2,B2,0.0739 KA relative to UGCAUGU
3,B3,0.0823 KA relative to UGCAUGU
4,B4,0.0918 KA relative to UGCAUGU
5,B5,0.12 KA relative to UGCAUGU
6,B6,0.112 KA relative to UGCAUGU
7,B7,1.17 KA relative to UGCAUGU
8,B8,0.0825 KA relative to UGCAUGU
9,B9,0.0841 KA relative to UGCAUGU
